The values below come from the antibiotic and cytotoxicity screens of Wong et al. (2023).

The other results are listed elsewhere or left out.

The subject of this experiment is HepG2. Put plainly: cytotoxicity call (relative viability < 0.9). The note with it: 10 µM.
For the molecule `C[C@@H]1CN([C@H](C)CO)C(=O)c2cccc(NS(=O)(=O)c3ccc(Cl)cc3)c2O[C@@H]1CN(C)S(=O)(=O)c1cn(C)cn1`, the cytotoxicity call was “inactive”.

Regarding `Cc1ccc(S(=O)(=O)N(C)C[C@@H]2Oc3ccc(NC(=O)Nc4cccc5ccccc45)cc3CC(=O)N([C@@H](C)CO)C[C@@H]2C)cc1`, the cytotoxicity call is “inactive”.

As to `C[C@H]1CN([C@@H](C)CO)C(=O)c2cc(NS(=O)(=O)c3ccc(Cl)cc3)ccc2O[C@@H]1CN(C)Cc1ccc(C(=O)Nc2ccccc2N)cc1`, the cytotoxicity call is “inactive”.

As to `C[C@H](CO)N1C[C@H](C)[C@H](CN(C)S(=O)(=O)c2ccc(Cl)cc2)OCc2cnnn2CCCC1=O`, the cytotoxicity call was “inactive”.

With `C[C@@H]1CN([C@@H](C)CO)C(=O)c2cc(C#CC3(O)CCCC3)cnc2O[C@H]1CN(C)C(=O)Cc1ccncc1`, the cytotoxicity call is “inactive”.

Turning to `C[C@H]1CN([C@@H](C)CO)C(=O)c2cccc(NS(=O)(=O)c3cn(C)cn3)c2O[C@H]1CN(C)Cc1ccccc1`, the cytotoxicity call is “inactive”.

Take `O=C1OC(CO)C(O)C(O)C1O` (stereo not given): the cytotoxicity call was “inactive”.

With `Cc1ccc(S(=O)(=O)N(C)C[C@@H]2Oc3c(NC(=O)C4CCOCC4)cccc3C(=O)N([C@@H](C)CO)C[C@@H]2C)cc1`, the cytotoxicity call is “inactive”.

Turning to `C[C@H]1CN([C@@H](C)CO)C(=O)c2cccc(NC(=O)CCCCCC(=O)Nc3ccccc3N)c2O[C@H]1CN(C)Cc1ccc(Cl)c(Cl)c1`, the cytotoxicity call is “inactive”.

`O=c1cc(-c2ccccc2)[nH]c(=O)[nH]1`: the cytotoxicity call was “inactive”.

For `CCCCOC(=O)[C@@H](N)CCC(=O)O`, the cytotoxicity call is “inactive”.

`C[C@@H]1CN([C@H](C)CO)C(=O)c2cccc(NS(C)(=O)=O)c2O[C@@H]1CN(C)S(=O)(=O)c1ccc(Cl)cc1`: the cytotoxicity call is “inactive”.

For the molecule `CCS(=O)(=O)N1CCC[C@]2(C(=O)NCC3CC3)CN(Cc3cnn(C)c3)C[C@H]2C1`, the cytotoxicity call was “inactive”.

With `CNC[C@@H]1Oc2cc(C#CCN(C)C)ccc2S(=O)(=O)N([C@H](C)CO)C[C@H]1C`, the cytotoxicity call is “inactive”.

On to `C[C@H](CO)N1C[C@H](C)[C@H](CN(C)S(C)(=O)=O)Oc2ccc(NC(=O)Cc3cn(C)c4ccccc34)cc2C1=O`, for which the cytotoxicity call was “inactive”.

Turning to `COCCn1c(=NN)[nH]c2ccsc2c1=O`, the cytotoxicity call is “inactive”.

Regarding `C[C@@H]1CCCCO[C@@H](CN(C)C(=O)Cc2ccccc2)[C@H](C)CN([C@@H](C)CO)C(=O)c2cc(NC(=O)Nc3ccccc3)ccc2O1`, the cytotoxicity call was “inactive”.

For `C[C@@H]1CN([C@@H](C)CO)S(=O)(=O)c2ccc(-c3cccnc3)cc2O[C@@H]1CN(C)CC1CCOCC1`, the cytotoxicity call is “inactive”.

On to `C[C@H](CO)N1C[C@H](C)[C@@H](CN(C)Cc2ccc(Cl)c(Cl)c2)OCCCC[C@H](C)Oc2ccc(NS(=O)(=O)c3cn(C)cn3)cc2C1=O`, for which the cytotoxicity call is “inactive”.

With `C[C@@H]1CN([C@H](C)CO)C(=O)c2cccc(NS(=O)(=O)c3ccc(Cl)cc3)c2O[C@@H]1CN(C)Cc1ccc(-c2ccccc2)cc1`, the cytotoxicity call was “inactive”.

For the molecule `C[C@@H](N)c1nc2c(s1)CCCC2`, the cytotoxicity call is “inactive”.

For `C[C@@H]1CN([C@H](C)CO)C(=O)c2cc(N(C)C)ccc2O[C@@H](C)CCCCO[C@@H]1CN(C)C(=O)CCCN(C)C`, the cytotoxicity call was “inactive”.

As for `C[C@@H]1CN([C@H](C)CO)C(=O)c2cccc(NC(=O)c3cnccn3)c2O[C@H]1CN(C)S(=O)(=O)c1ccc(F)cc1`, the cytotoxicity call is “inactive”.

For `c1ccc(-c2cccs2)nc1`, the cytotoxicity call was “inactive”.

Consider `C[C@@H]1CN([C@@H](C)CO)C(=O)c2cc(C#Cc3ccc(F)cc3)cnc2O[C@@H]1CN(C)CC1CCOCC1`, for which the cytotoxicity call is “inactive”.

In the case of `C[C@@H]1CCCCO[C@@H](CN(C)S(=O)(=O)c2cn(C)cn2)[C@H](C)CN([C@@H](C)CO)C(=O)c2cc(NC(=O)Nc3ccc(C(F)(F)F)cc3)ccc2O1`, the cytotoxicity call is “inactive”.

Turning to `Cc1noc(C)c1NC(=O)Nc1ccc2c(c1)C(=O)N([C@@H](C)CO)C[C@@H](C)[C@H](CN(C)C(=O)c1ccccc1)OCCCC[C@@H](C)O2`, the cytotoxicity call is “inactive”.

For `C[C@@H]1CN([C@@H](C)CO)C(=O)c2cc(NC(=O)Cc3ccccc3)ccc2O[C@@H](C)CCCCO[C@H]1CN(C)C(=O)C1CCCCC1`, the cytotoxicity call was “inactive”.

For `c1ccc2[nH]c(-c3cscn3)nc2c1`, the cytotoxicity call was “inactive”.

Consider `O=S(=O)(N1CCOCC1)n1nnc2ccccc21`, for which the cytotoxicity call was “inactive”.

For the molecule `O=C(C[C@H]1CC[C@@H]2[C@H](COC[C@H](O)CN2Cc2ccccc2F)O1)N[C@@H]1CCN(Cc2ccccc2)C1`, the cytotoxicity call was “inactive”.

`OCC(CO)NC1CC(O)(CO)C(O)C(O)C1O` (stereo not given): the cytotoxicity call is “inactive”.

For the molecule `C[C@H]1CN([C@@H](C)CO)S(=O)(=O)c2ccc(C3=CCCC3)cc2O[C@H]1CN(C)C(=O)Cc1ccncc1`, the cytotoxicity call was “inactive”.

For `O=c1[nH]nc(N2CCSCC2)[nH]1`, the cytotoxicity call was “inactive”.

`C[C@@H]1CN([C@H](C)CO)C(=O)Cc2cc(NS(=O)(=O)c3cccs3)ccc2O[C@@H]1CN(C)CC1CC1`: the cytotoxicity call is “inactive”.

As to `CCOC(=O)C1CCN(S(=O)(=O)c2c(C)n(C)c(=O)n(C)c2=O)CC1`, the cytotoxicity call was “inactive”.

As to `C[C@H](CO)N1C[C@H](C)[C@@H](CN(C)C(=O)Nc2ccc3c(c2)OCO3)Oc2ccc(NC(=O)C3CC3)cc2CC1=O`, the cytotoxicity call is “inactive”.

With `C[C@@H]1CN([C@H](C)CO)C(=O)c2cc(NS(=O)(=O)c3ccc(F)cc3)ccc2O[C@@H]1CN(C)S(=O)(=O)c1ccccc1`, the cytotoxicity call is “inactive”.

On to `Cc1noc(C)c1NC(=O)Nc1ccc2c(c1)C(=O)N([C@@H](C)CO)C[C@@H](C)[C@@H](CN(C)S(=O)(=O)c1ccccc1)OCCCC[C@@H](C)O2`, for which the cytotoxicity call was “inactive”.

With `Cc1noc(C)c1S(=O)(=O)Nc1ccc2c(c1)CC(=O)N([C@H](C)CO)C[C@@H](C)[C@@H](CN(C)C(=O)NC(C)C)O2`, the cytotoxicity call was “inactive”.
